Reference: the supplement of paper PMC11417369
The other results are listed elsewhere or left out.

The sequences below were run on PfHDP1 homeodomain (GST-tagged) (assay: gcPBM binding intensity (ln(normalized median fluorescence intensity)); higher = stronger DNA binding).
Method in brief: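 Using an Agilent 4 × 180k array, primer-extended double-stranded 36-bp intergenic genomic probes and negative controls were exposed for 1 h to GST-fused P. falciparum DNA-binding domains expressed in E. coli. Binding was carried out in 1× PBS with 1% milk, 0.2 mg/ml BSA, 0.5% salmon testes DNA and 0.03% Triton X-100, and protein was detected with Alexa488 anti-GST antibody and a 488 nm scan. Binding intensity is the highest Masliner-normalised natural-log median intensity across replicate spots of either probe orientation.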

Sequence | gcPBM binding intensity (ln)
ATTAAGATGTATATATGTACATATTACATACATATA [XGTACX_site8657] | 6.47
TAAGAAAATATTTATGTATGCATGTCCTAATATTTC [TGCATGCA_site295] | 6.14
AAAAAAAATTAATTAGTGCAAAATATATACAAAATA [GTGCAC_site9762] | 10.4
TTTTTTTTTTTTTGTTGTACAATACTTAATCATTAT [XGTACX_site3422] | 6.52
ATATATATATAATCAAGTACACAGTAATAAAAAGAA [XGTACX_site1070] | 8.21
ATTGTGTTCATCAGCACACACAACATCATGCAATAA [CACACA_site6960] | 6.52
AATAATAACTGTAGGTGTACGTAAAAAAAAAATTAT [XGTACX_site3133] | 6.98
TCTATACCTATTCTTACACACATATGTATATATATA [CACACA_site563] | 7.31
TTTTTTTTTTTTGAAACATGCATTGTTTTATTCTTA [TGCATGCA_site15] | 6.23
AAAAAAAGATTATACACACACATATATAAACCTACA [CACACA_site710] | 6.77
AATATAGATATAACCACACACATACATCTAATTCTA [CACACA_site1760] | 6.58
AATGTATATATGTAATGTACATATGTAATGTATATA [XGTACX_site6509] | 6.82
TTTTGTTTTGTTTTGTTTTGTTTTGTTTTATTTTAT [GTGCAC_negctrl_site383] | 6.67
TGTTTCTTATTTTTTTCACACACTAAACATTTCAAA [CACACA_site2218] | 7.42
GAAAAGAACAAGAGCATGCACTTAATAAGAATAATA | 8.93
TTTCAAAATGTGTAAAATAAAAATAATATCATTACA [TGCATGCA_negctrl_site521] | 6.42
ATGTGATATAAGTACACACACATATGTATATAGAAT [CACACA_site1823] | 7.3
TTAATTTCATTTTCTACACACCTATCCTTTTTTTTT [CACACA_site772] | 6.38
ATACATATTACATGTTGTACTCCAACAAAAATGCCC [XGTACX_site3201] | 6.67

Sequence | gcPBM binding intensity (ln)
ACATCAAGAATTATTAAGAATACGGATAGATAAAAT [GTGCAC_negctrl_site261] | 6.51
TAAATGCACATATACACACACCCAATTTTAAGTTTT [CACACA_site7428] | 11.1
AATAAAAAAAGTTTTTTTTTTTTTTAAACAATAGAC [CACACA_negctrl_site1061] | 6.2
TATATGTTTTAAAAGTGTACTTTAGTTTCAATTTTT [XGTACX_site4269] | 6.08
AAGAATGTTAATAGTACACACAATTATTATATAAAT [CACACA_site3739] | 6.53
AAAAATTTAATGAAATGTACATATATGTTATTAATA [XGTACX_site6091] | 6.85
ATAATAATAATAAAAAGTACATTTAATTATATAGAA [XGTACX_site7742] | 6.51
AATAACCACCAACACACACACATATATATATATATA [CACACA_site3540] | 9.37
AAGAAAAATATATAAATAAATAAATATATAAATATA [CACACA_negctrl_site836] | 5.94
TATTCTCTCTTATGAACACACATTTTTATTTTCAAA [CACACA_site7554] | 6.67
TAAAAATATATATGATTGCACTTAGGACAATATATA | 7.49
ATTAATATATTATCATGTACACAAAAATAATTTTAT [XGTACX_site7257] | 6.62
GGAAACAAAAAATATATACACACTAATCATAAAAAA [CACACA_site7890] | 6.54
AATTTAAAAATGGACACACACAAAAAATAATACTTA [CACACA_site250] | 6.85
AAAAAAGTTGTATTTGCACACATAAAAAAAAGATAT [CACACA_site3839] | 10.3
TTATAAATAAAAAATACACACATATATATATATATA [CACACA_site207] | 9.4
AAAAATTAACAAAAGGTGCAATTTATTTATTAACGG | 9.05
GTATATTATATTGGGTGTACCATATATAATATAATC [XGTACX_site8579] | 6.35
TAGACAAAATATAATGCACACTATTATTTTTATTTA [CACACA_site5508] | 10.4

Sequence | gcPBM binding intensity (ln)
TATTTTAATATGTATACATGCATACCTACTCATACA [TGCATGCA_site779] | 6.63
AACTTGTATTTATACACACACACACTGTCTTTTTTT [CACACA_site7009] | 6.97
TAAAATTTTATAAAGGAACACACATTTTTTTTTTTT [CACACA_site8740] | 6.24
CAATCAAATGGACACACACACACCTAAACATAAAAG [CACACA_site5524] | 6.97
CTTTTTTTTTTAAATTGTACAAATGTGATGTAATAG [XGTACX_site3219] | 6.66
ATTAAAAAATTACAAGCATGCTTGTTAAAATTTTTT [TGCATGCA_site941] | 5.92
GGAAAAGGTATCCGTTCACACATAAATGGATACCAT [CACACA_site5072] | 5.69
AAAAAAAAAAAAATGTGTACATACATATATTTATAT [XGTACX_site3076] | 6.37
TGGGCACCCATATACACACACAAATACAATGATAAA [CACACA_site4762] | 6.48
TTTTATTTATTTTATTGTACATATATAAAACTATGA [XGTACX_site3476] | 6.6
AATATATTATATATATGTACATATGTGTATACATTT [XGTACX_site937] | 6.94
ATTACATATTGATAAGTGCAAGTGTGAGAAATGTTA | 8.16
TCTATATAGATTTGCACACATAAAAATGCTTATATA [CACACA_site2389] | 10.1
ATATATATGTGTAAAAGTACATATATTTTGAAATAT [XGTACX_site4024] | 6.46
TTTTAATAAAAGCCCATGCACACCTTAGAAAGTTTT [CACACA_site346] | 7.71
TTTTTCATTTTTAAAATAATTATAATATTATACATA [XGTACX_negctrl_site43] | 6.62
TAAATCAGCCATAACACACATACATATATACATAAA [CACACA_site396] | 6.48
TAAATATATATTATATGTACTTATATATATATATAT [XGTACX_site4448] | 8.83
AGCAAATAAATAAATAAATAAATAAATATATATATA [TGCATGCA_negctrl_site40] | 8.79
